PMC4336329 (PLoS ONE, 2015)
In all, about 310,000 compounds went through this assay and about 14,000 (4.5%) showed an effect of 50% or more. The effect is printed as a negative number. The list shows a part of the results.

These molecules were tested against human ether-à-go-go-related gene (hERG) potassium channel (human, UniProt Q12809) (assay: primary screen, population patch clamp on CHO cells stably expressing hERG).
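Further: peak tail current of the secondary pulse compared with the same well before compound.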

Chain of human ether-à-go-go-related gene (hERG) potassium channel (Q12809 whole entry, looked up): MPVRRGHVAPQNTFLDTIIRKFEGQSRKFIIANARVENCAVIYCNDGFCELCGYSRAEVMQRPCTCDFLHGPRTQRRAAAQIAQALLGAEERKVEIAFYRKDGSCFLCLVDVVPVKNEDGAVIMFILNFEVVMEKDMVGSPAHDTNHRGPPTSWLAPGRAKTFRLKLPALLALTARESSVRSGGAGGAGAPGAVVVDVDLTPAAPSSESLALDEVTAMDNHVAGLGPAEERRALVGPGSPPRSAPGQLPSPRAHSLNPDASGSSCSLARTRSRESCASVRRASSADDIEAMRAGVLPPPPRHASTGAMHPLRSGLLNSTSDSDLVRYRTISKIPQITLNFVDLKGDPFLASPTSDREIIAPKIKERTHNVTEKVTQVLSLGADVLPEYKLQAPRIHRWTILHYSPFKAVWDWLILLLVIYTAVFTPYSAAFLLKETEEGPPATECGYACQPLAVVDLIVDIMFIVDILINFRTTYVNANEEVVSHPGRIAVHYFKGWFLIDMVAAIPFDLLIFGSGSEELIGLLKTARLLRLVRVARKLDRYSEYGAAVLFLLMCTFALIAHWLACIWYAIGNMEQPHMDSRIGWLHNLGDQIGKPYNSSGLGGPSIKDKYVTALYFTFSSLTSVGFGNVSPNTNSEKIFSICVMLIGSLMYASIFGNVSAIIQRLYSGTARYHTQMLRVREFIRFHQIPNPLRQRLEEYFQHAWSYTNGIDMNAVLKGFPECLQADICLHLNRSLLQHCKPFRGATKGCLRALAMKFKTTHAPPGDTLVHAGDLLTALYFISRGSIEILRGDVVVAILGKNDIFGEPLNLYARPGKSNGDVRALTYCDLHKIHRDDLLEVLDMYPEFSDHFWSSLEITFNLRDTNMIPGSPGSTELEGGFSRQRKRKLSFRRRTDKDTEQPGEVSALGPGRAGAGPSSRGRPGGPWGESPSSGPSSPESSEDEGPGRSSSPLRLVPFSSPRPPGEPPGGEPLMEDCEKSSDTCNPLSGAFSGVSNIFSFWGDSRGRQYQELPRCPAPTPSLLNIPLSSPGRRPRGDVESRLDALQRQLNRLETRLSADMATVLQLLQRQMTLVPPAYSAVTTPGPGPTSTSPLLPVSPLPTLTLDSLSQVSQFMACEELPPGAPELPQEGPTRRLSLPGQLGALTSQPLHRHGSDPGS

SMILES | hERG current change (%, negative = inhibition) at 10uM [%]
CCCCn1c(SCC(=O)c2ccc(O)cc2O)nc2cc(S(N)(=O)=O)ccc21 | -2.55
Cc1ccc(NC(=O)COc2coc(CN3CCc4ccccc43)cc2=O)cc1Cl | 8.03
CCc1nc(SCC(=O)Nc2ccccc2OC)c2c(C)c(C)sc2n1 | 16.9
CC1CCC2C(=O)N(c3ccccc3OC(=O)c3ccccc3F)C(=O)C2C1 (stereo not drawn) | -10.3
O=c1cc(N2CCCCC2)nc2n1CCCS2 | 10.9
CCCCNc1ccc(C(CC(N)=O)NC(=O)c2ccccc2)cc1[N+](=O)[O-] (stereo not drawn) | -3.54
CC(C)C(NC(=O)c1ccccc1)C(=O)OCC(=O)N1CCN(c2ccccc2)CC1 (stereo not drawn) | -2.47
Cc1ccc(NC(=O)Cn2cccc2C2=NC(c3ccccc3)CO2)c(C)c1 (stereo not drawn) | -1.88
O=C(Oc1ccc(NC(=O)c2cc3c(cc2Br)OCO3)cc1)c1ccccc1 | 12.3
CCCCCCOc1ccc(N2C(=O)CC(N3CCN(CCN=CC4C(=O)CC(C)(C)CC4=O)CC3)C2=O)cc1 (stereo not drawn) | -32.5
C/C(N)=C(/C#N)C(=O)COC(=O)C(c1ccccc1)c1ccccc1 | 32.8
CC(C)COC(=O)C(C#N)c1nc2ccccc2nc1N1CCN(Cc2ccccc2)CC1 (stereo not drawn) | -12
COc1ccc(-c2[nH]ncc2/C=N/NC(=O)c2cc(Br)ccc2O)c(OC)c1 | 14.8
CSc1nnc2c(n1)c(C)nn2-c1ccc(C)cc1 | -8.25
Cc1cccc(NC(=O)Nc2ccccc2)n1 | 9.76
COc1ccc2nc(SC)cc(C)c2c1 | 16.5
COc1ccc(OCCNC(=O)c2cc(C3CC3)nc3c2cnn3C(C)C)cc1 | -25
O=C(NCCc1ccc2c(c1)OCCO2)c1ccc(F)cc1 | 6.45
COc1ccc(C(=O)NCCCn2ccnc2)cc1[N+](=O)[O-] | -8.22
COc1ccccc1CNC(=O)c1ccc(N2CCOCC2)c([N+](=O)[O-])c1 | -26.6
CCOC(=O)c1cc(-c2ccco2)nc2c1c(C)nn2CCC#N | -17.3
COC(=O)c1cc(CSc2nc3ccccc3c(=O)n2C)oc1C | 20
N#CCC(=O)Nc1ncc(Cc2ccccc2Cl)s1 | 8.34

SMILES | hERG current change (%, negative = inhibition) at 10uM [%]
O=C(Nc1ncnc2sc3c(c12)CCCC3)c1ccncc1 | -14.2
CCCCn1c(N)c(C(=S)NC(=O)CC(C)(C)C)c(=O)n(C)c1=O | 14
N#CC(C#N)=NNc1ccc(S(=O)(=O)N2CCCC2)cc1 | -17.8
COc1ccc([C@H]2CC(=O)C=C(c3ccc(Cl)c(C(F)(F)F)c3)C2)cc1OC | 18
O=C(NCc1cccs1)c1cc2c(s1)CS(=O)(=O)C2 | -0.732
Cc1cc(NC(=O)C2CC(=O)N(c3ccc(Cl)cc3)C2)no1 (stereo not drawn) | -11
CCOC(=O)C(C(=O)NCc1ccc(F)cc1)c1ncc(C(F)(F)F)cc1Cl (stereo not drawn) | -7.37
CCCCC(c1nnnn1CC1CCCO1)N1CCN(c2ccccc2)CC1.Cl (stereo not drawn) | 9.63
CC(=O)N1CCN(c2cccc(C)c2C)CC1 | -0.674
COc1ccc(OCC(=O)N/N=C(\C)c2ccc(-n3ccnc3)cc2)cc1 | -42.6
CSc1c(C#N)sc(=S)n1-c1ccc(C)cc1 | -12.9
Cc1cc(C(=O)COC(=O)c2ccccc2NCCO)c(C)n1CC1CCCO1 (stereo not drawn) | -18.2
Cc1cc(C)c2cc(C#N)c(NCCNC(=S)NCCCN3CCOCC3)nc2c1 | -4.45
COc1ccc(NC2c3ccccc3C(=O)N2Cc2ccccc2Cl)cc1OC (stereo not drawn) | -24.2
CC(C)(C)C(=O)N1CCN(c2ccc([N+](=O)[O-])cc2-n2cccc2)CC1 | -26.3
Cc1ccc(S(=O)(=O)N2CCCOC2CNC(=O)C(=O)NC2CCCCC2)cc1 (stereo not drawn) | 1.38
CCC1Sc2ccccc2N(CC(=O)NCc2ccccc2OC)C1=O (stereo not drawn) | 0.413
Cc1onc(-c2ccccc2)c1C(=O)N1CCCSC1=Nc1ccccc1 | 8.14
O=C(CCCOc1ccc(Cl)cc1)Nc1cccc(C(=O)O)c1 | 13
CCOC(=O)CN(C(=O)CNC(=O)c1cccs1)C(C(=O)NC1CCCCC1)c1cccnc1 (stereo not drawn) | 6.29
Cc1ccc(C(C)C)c(OCCCCCN2CCOCC2)c1 | -24.1
Cc1cc(/C=C(\C#N)C(=O)Nc2ccc(Cl)cc2)c(C)n1-c1ccc(N2CCOCC2)c([N+](=O)[O-])c1 | 4.13
